# Hit rate of the full screen: of about 340,000 compounds, about 6,900 (2%) were called active. No stated cut-off is given here; in the data, active means inhibition above about 30%; inactive means below that, where a call was filed. This is a selection; strong and weak results do not stand in their true shares. Entries without a call were filed so in the source.
# Molecular target: D(2) dopamine receptor (Homo sapiens) (UniProt P14416)
# Assay: HTS Assay for Allosteric Antagonists of the Human D2 Dopamine Receptor: Primary Screen for Antagonists; further: 0% is about no effect
# Conditions: HEK293 TREx D2 cells, calcium flux, dopamine EC80; at 10 µM; stronger effect = higher value
# How it was run: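 In this primary screen, negative modulation is detected by tracking calcium flux after an EC80 dopamine challenge in inducible HEK293 T-REx D2 cells preexposed to test compound for 180 s.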
# UniProt P14416, sequence (P14416 whole entry, looked up): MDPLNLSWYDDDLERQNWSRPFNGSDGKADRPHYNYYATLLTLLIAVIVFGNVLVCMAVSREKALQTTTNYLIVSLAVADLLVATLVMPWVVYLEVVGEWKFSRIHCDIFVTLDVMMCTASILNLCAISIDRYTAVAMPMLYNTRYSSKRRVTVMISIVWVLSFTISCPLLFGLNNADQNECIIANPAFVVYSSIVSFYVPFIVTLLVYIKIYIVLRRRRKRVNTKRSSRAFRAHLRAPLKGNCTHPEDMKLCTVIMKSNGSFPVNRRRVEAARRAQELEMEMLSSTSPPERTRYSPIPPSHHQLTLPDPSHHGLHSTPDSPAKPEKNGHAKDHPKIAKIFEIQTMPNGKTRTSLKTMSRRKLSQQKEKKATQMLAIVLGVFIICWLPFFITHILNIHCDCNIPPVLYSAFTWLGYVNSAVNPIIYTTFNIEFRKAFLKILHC
row,SMILES,inhibition
1,CN(CCC(=O)Nc1cc(S(=O)(=O)N(C)C)ccc1Cl)CC(=O)Nc1ccc(F)cc1,active: 50.6%
2,COc1cccc(-n2c(=O)c3cc(OC)c(OC)cc3n(CC(=O)Nc3ccc(F)cc3)c2=O)c1,16.6%
3,COc1ccc(-n2c(SCC(=O)NCc3ccc(Cl)cc3)nc3ccsc3c2=O)cc1,3.65%
4,CCOC(=O)C1CCCCN1C(=O)CCc1c(C)nc2cc(-c3ccccc3)nn2c1C (stereo unspecified),active: 32.8%
5,Cc1ccc(NC(=O)CCCc2nc(-c3ccco3)no2)cc1Cl,5.59%
6,COc1cccc(NC(=O)C(Cc2ccccc2)N2Cc3ccccc3C2=O)c1 (stereo unspecified),9.77%
7,COc1ccc(-n2nnnc2C2CCN(S(=O)(=O)c3cccc(C(F)(F)F)c3)CC2)cc1,7.95%
8,CC(=O)Nc1ccc(/C=C/c2noc(-c3ccccc3O)n2)cc1,3.31%
9,CCOC(=O)CSc1nc(-c2ccc(OCC)cc2)cc(C(F)(F)F)c1C#N,20.4%
10,Cc1cc(C)c2ccc(C)[n+]([O-])c2c1O,active: 37.4%
11,CC(=O)c1ccc(N2CCN(S(=O)(=O)c3cc4[nH]c(=O)c(=O)[nH]c4cc3C)CC2)cc1,2.25%
12,COc1ccccc1CNC(=O)C(=O)NCC(c1cccs1)S(=O)(=O)c1ccccc1 (stereo unspecified),-16.4%
13,CCc1nnc(NC(=O)c2cc(=O)c3cc(C)ccc3o2)s1,2.56%
14,Cc1ccc(C)c(N2CCN(C(=O)Cn3cnc4onc(-c5ccc(F)cc5)c4c3=O)CC2)c1,-0.44%
15,CCOc1ccc2ncc3c(-c4ccc(C)cc4)nn(-c4cccc(F)c4)c3c2c1,26.6%
16,COc1ccc(CCNC(=O)CSc2nc3[nH]c(=O)cc(O)c3s2)cc1,active: 43.9%
17,COc1ccc(-c2nc3c(c(SCC(=O)N4CCCCC4)n2)Cc2cc(C)ccc2O3)cc1,5.87%
18,O=S(=O)(c1cccc(Cl)c1)c1nnn2c1nc(NCc1ccc3c(c1)OCO3)c1sccc12,19.2%
19,COc1ccc(C(=O)c2oc3ccccc3c2NC(=O)c2cc(=O)c3ccc(C)cc3o2)cc1Cl,-16.3%
20,Cc1cccc(C(=O)Nc2nnc(S(=O)(=O)N(C)Cc3ccccc3)s2)c1,16.1%
21,Cc1ccc(S(=O)(=O)CC(=O)Nc2nc3c(C)cc(C)cc3s2)cc1,16.2%
22,CCOc1ccc(-c2cccc(NS(=O)(=O)c3ccc(F)cc3F)c2)nn1,-9.89%
23,COc1ccc(-c2noc(CNC(=O)c3ccccc3Br)n2)cc1,1.57%
24,CCCOc1ccc(C2c3c(-c4ccccc4O)n[nH]c3C(=O)N2CCc2ccccc2)cc1OCC (stereo unspecified),-0.629%
25,N#Cc1c(SCc2ccccc2)sc(C(=O)c2ccccc2)c1N,active: 65%
26,Cc1ccc(NC(=O)c2cc(S(=O)(=O)N3CCC4(CC3)OCCO4)ccc2F)cc1Cl,2.63%

# Source: PubChem BioAssay AID485344 (National Center for Advancing Translational Sciences (NCATS), 2010)
